This is one part of the list.
T1: UNK ZnF1-3 (human, UniProt Q9C0B0 31-174)
T1 sequence: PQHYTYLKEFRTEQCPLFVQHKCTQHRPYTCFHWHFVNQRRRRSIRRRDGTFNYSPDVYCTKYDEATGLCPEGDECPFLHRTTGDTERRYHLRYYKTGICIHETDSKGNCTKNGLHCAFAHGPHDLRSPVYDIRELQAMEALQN

B1: chr2:202488911:202488912:-_ENSG00000155755_ENST00000286196|hu_mus|hu_hu_hu_mus_False|1_78 (ssRNA)
RNA: GGGAGUUCUACAGUCCGACGAUCAUUGAAACAUUUUUCAUAAUCUCCAGUAGCAUUCAGUAUUAUAGUAACAAAAGCUCAAUUGUAAAUACAUGUAUCUUAUAAAAAUACACUUAAAAACACGAGUGGGGAGCGCACAAAUACCAACAGAGGAUUGAGCAUCA
B2: 123907180_123907584_1593_CDS_ENSG00000119397_ENST00000373850|human|control|control (ssRNA)
RNA: GGGAGUUCUACAGUCCGACGAUCAAUUUCUAGGACCUGUGAGUUUGCUCCAGUACCUACACCUGUUUUCUCCAUCUCAAGUCGAAACUGCUCCCCCUUCUGCCUGAGGAGAUUCUGCAGGAGUUCGAUCUCAGCUUCUGCUCGCAACAGAGGAUUGAGCAUCA
B3: 46964300_46964420_1447_3pUTR_ENSMUSG00000025041_ENSMUST00000168536|mouse|control|control (ssRNA)
RNA: GGGAGUUCUACAGUCCGACGAUCACAGCAGGUUGAUGAACGAGGCCGCAUAGAGAUCUGCAUAGCGCAUCACUUGGCUGGCAAAGAGUGUCUGCCGGGAGCCGCUGCGGAACAGGCUUCCCAUCAUCCCAUAGCACAUGUCCACAACAGAGGAUUGAGCAUCA
B4: chrX:16864032:16864033:-_ENSG00000102054_ENST00000404022|hu_mus|FALSE|FALSE (ssRNA)
RNA: GGGAGUUCUACAGUCCGACGAUCCAUGAUGUUAUCUUCAGACACAGAGCAAAUGACCCAAGGUUCAUUGGGAUUCCAGCUGAAGUCAGAAAUCUUGGCAGUGUGCCCUCCAUGAAUAAACAGGAGCUCUGGAGGCCCAUCUUCCAACAGAGGAUUGAGCAUCA
B5: chr1:39494447:39494448:+_ENSG00000168653_ENST00000372967|hu_mus|hu_hu_hu_mus_False|68_68 (ssRNA)
RNA: GGGAGUUCUACAGUCCGACGAUCGCACCGAGCGGCGUUCUUAUAGGGCUGUUCUGCGCUUAGGAACGUCAACCAUCGGUCCAGGCUGAUGCCCAGCUUUUUCUGUAUGUCAAGGAAAGGCAUGGCUCUGCAGUGCCCUUGUCACAACAGAGGAUUGAGCAUCA
B6: chr9:110451384:110451385:+_ENSMUSG00000044791_ENSMUST00000153838|mus_mus|FALSE|FALSE (ssRNA)
RNA: GGGAGUUCUACAGUCCGACGAUCAGAAAUCUUAUUAAUUGUUCUUAAUUCACUACCUUUUGAACAAGGAGUCUGCAAACUAAACGAAUGAGAUUGUUUGUUUUCCUCAUUUAAUUCUGUACAACAGAAAGAAUUUUUAAAUUUCAACAGAGGAUUGAGCAUCA

biological target: T1, UNK ZnF1-3; test: nsRBNS (natural sequence RNA bind-n-seq); RBNS binding buffer (assumed for nsRBNS): 25 mM Tris pH 7.5, 150 mM KCl, 3 mM MgCl2, 0.01% Triton X-100, 500 ug/ml BSA, 20 U/ml SUPERase-In, 4 C; UNK is unkempt and MSI1 is Musashi-1; names of the RNAs are library labels; protein concentration not given here; high values mean tight binding

Row | Binder | binding signal
1 | B1 | 1.77 enrichment R
2 | B2 | 0.874 enrichment R
3 | B3 | 1.13 enrichment R
4 | B4 | 1.01 enrichment R
5 | B5 | 0.565 enrichment R
6 | B6 | 1.36 enrichment R

From PMC12136788
